According to the supplement of paper PMC3334620:
The full ranking holds about 33,000 sequences; the median of “E-score (-0.5 to 0.5)” is about -0.043, and the highest 2% start at about 0.37. This is one part of the list.

target: T1, Upc2 (UniProt Q12151); assay: PBM E-score (8-mer binding enrichment) (E-score (-0.5 to 0.5)); higher = stronger / more preferred TF binding; most listed sequences are background and not binding sites; details: protein concentration: 200 nM; construct: GST-full length
T1 sequence: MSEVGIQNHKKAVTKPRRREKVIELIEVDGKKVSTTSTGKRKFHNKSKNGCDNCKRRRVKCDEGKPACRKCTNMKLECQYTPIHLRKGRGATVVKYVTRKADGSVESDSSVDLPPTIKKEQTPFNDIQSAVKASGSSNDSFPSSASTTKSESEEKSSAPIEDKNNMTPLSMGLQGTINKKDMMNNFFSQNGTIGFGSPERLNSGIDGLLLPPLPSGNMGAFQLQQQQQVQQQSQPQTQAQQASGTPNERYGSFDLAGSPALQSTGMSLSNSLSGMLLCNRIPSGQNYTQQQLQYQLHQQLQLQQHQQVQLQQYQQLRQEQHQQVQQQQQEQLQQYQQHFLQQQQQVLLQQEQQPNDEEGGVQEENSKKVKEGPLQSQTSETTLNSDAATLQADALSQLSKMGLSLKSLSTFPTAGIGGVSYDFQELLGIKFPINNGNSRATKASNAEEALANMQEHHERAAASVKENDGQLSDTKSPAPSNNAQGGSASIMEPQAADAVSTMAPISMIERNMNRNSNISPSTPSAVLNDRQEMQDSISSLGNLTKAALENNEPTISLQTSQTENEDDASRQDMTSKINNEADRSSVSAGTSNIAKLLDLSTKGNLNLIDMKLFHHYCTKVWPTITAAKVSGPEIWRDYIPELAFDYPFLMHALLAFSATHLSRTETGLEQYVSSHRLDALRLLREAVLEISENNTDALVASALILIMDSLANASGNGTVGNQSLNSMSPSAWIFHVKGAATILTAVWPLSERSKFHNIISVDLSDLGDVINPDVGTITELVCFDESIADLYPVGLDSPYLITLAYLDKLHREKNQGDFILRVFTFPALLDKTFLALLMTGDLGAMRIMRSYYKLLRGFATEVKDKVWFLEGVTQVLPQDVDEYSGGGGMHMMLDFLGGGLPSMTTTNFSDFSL
How it was run: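 The E-score, a modified Wilcoxon-Mann-Whitney statistic, was computed by the Universal PBM Analysis Suite for every ungapped eight-base word pooled with its reverse complement. Scans behind it were normalised with masliner after bound GST-tagged yeast transcription factors were detected with fluorescent anti-GST. The proteins, at about 100-200 nM, had been applied to universal all-10-mer Agilent arrays made double-stranded by primer extension.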

Sequence | PBM E-score
AAAGTCTA | -0.119
GAGAACAA | 0.113
ACTGACGC | -0.123
AGGACTTG | -0.287
GCGAAGGA | -0.00978
GTATAGGA | 0.341
GCCCCAGC | -0.192
AAGTTCCC | -0.169
AGTTTGAA | -0.0634
CTCTCAGC | -0.195
CCCGCTCG | 0.125
ACGCAGAA | 0.108
ACAATTGA | 0.102
GTTTAAGA | 0.288
ACCGCAGC | -0.134
ATACCAGG | -0.113
AGATTAAC | 0.11
CCACGGGC | -0.222
CACACGGA | -0.111
GGGCTACC | -0.258
CTGCGACA | 0.00769
ATAGTACG | 0.221
CAATGATC | -0.0458
ATTGGACA | -0.0219
AAGCCAAG | -0.233

Sequence | PBM E-score
CATCGATG | -0.0722
ATGTAGAC | -0.248
ATAGTTAG | -0.0248
TAGGATGA | 0.038
GTATTGTA | 0.216
CTCAAGAG | -0.245
AGCTCTAA | -0.192
AGCATGCA | -0.289
CACTAATA | -0.0717
AGACACCT | -0.148
CCTTACCG | 0.12
ATATTGTA | 0.073
TAACAACA | 0.185
CTTGTTGC | -0.27
ATTAGCCG | 0.0535
CACGTGCG | 0.0129
CACCTCCA | -0.19
ACACGTTA | -0.0364
AAAAATTC | -0.11
AAAAGCAC | 0.0633
ACCATAGC | -0.298
GTCTGGTA | -0.0113
GATGAAGC | -0.144
GGCTCGAA | -0.0434
TCTACCCA | 0.00742

Sequence | PBM E-score
GAGGACCC | -0.125
ATAATCAG | -0.0572
CATGGGTA | -0.1
CGTATGAC | 0.42
ACCTAGCG | -0.0208
ATAGCTGG | -0.133
AGGGGCGG | -0.037
CAATAGGG | -0.0137
CGAGTCCC | 0.0912
ACATTGTC | 0.091
AAACCCAC | 0.11
CACGTAAG | 0.105
CCGCTGTC | -0.113
AAGCCTGC | -0.208
ATTGACAA | -0.0998
TATACCGA | 0.333
CCAGCAAA | 0.0457
AAATTTGC | -0.0327
AAATACTA | -0.0604
CATATGGG | -0.058
CAAATCAC | 0.0792
AGATGCCT | -0.0725
AGTAAACG | 0.442
CGATGAAA | 0.0692
AATACTTC | -0.1

Sequence | PBM E-score
CGTAACCC | 0.259
ACATCGTC | -0.00985
CATTGTCC | -0.182
GTCGCACA | 0.227
GCGCCAAA | 0.00017
CCTCGGAC | 0.199
ACTCGACG | -0.00328
GCCTCCGC | -0.121
GCCGTCCC | 0.0247
CCGATTAA | 0.0714
CTCTTTGC | -0.24
AACAGTTC | 0.017
GTTAACAA | 0.0432
CGGTGCAG | -0.12
ACCTCTAC | 0.222
GGACCCCA | 0.0342
CAACTTTC | -0.00654
GAGAGGTA | -0.105
GTAGATTA | 0.0947
CTAGACAC | -0.184
ATAGGCTA | -0.288
CCTAATTC | -0.158
TGCAGGAA | -0.136
AAAAACCG | -0.0777
AAGACGGA | 0.0195

Sequence | PBM E-score
TATCTGAA | -0.05
CTCGACCC | -0.186
ATAGGAGC | -0.224
AATTTCGA | 0.0126
GAAGAGAA | -0.0848
GCTCCTTA | -0.153
TCGCCCCA | -0.253
AACTACGA | 0.175
AAGCACTA | 0.0637
CACTAGGA | -0.245
TATTGGCA | -0.228
ATGTTAGA | -0.313
CTATTATA | -0.0976
CCACTACC | -0.178
GGAGCGCC | -0.192
CCTCCGAC | -0.174
CCCGAGCC | -0.0326
CTAACACA | 0.0186
CATCTGTC | -0.146
CCAGTCCA | -0.353
CCCAAATC | -0.0922
AACAGGAA | -0.00503
AGCAGGTC | -0.157
AGACTGCA | -0.241
CCAGGATC | -0.0701

Sequence | PBM E-score
ATCACTCG | 0.226
AGCTGCAG | 0.0103
GTTTTAGA | -0.118
CCTAAAGG | -0.19
ATGCGAAG | 0.269
CCAAAATA | -0.0313
AATCGATG | 0.105
AAAGGTAC | 0.0683
TCCCCCGA | -0.312
ATACTGAG | 0.132
CATGTCAC | -0.0261
CAACAGAA | -0.148
ATTAGAAG | 0.0049
AGGTTGCA | -0.0241
ATCCGAGG | 0.18
GATGGTTA | 0.12
CAGACAAG | -0.011
AAATCGAA | 0.00511
CCAGGAGG | -0.279
CAGGCCAG | -0.033
AACGAATG | 0.416
CAGTATAC | 0.329
CAAATACG | 0.311
CGGGGTTC | 0.0784
GGGGGAAA | -0.263

Sequence | PBM E-score
CTAAATGC | -0.188
AAAGGGAA | -0.131
AAATCATG | -0.157
CCGTAAAG | 0.395
GGCGCCCA | -0.0699
CTGGTGGA | -0.126
GGAGCCCC | -0.0924
CAAAGAGC | -0.169
CTTTTCAA | 0.0421
ATTCAGCA | -0.12
CGCCGAGC | 0.0222
CCTTGTGC | -0.0886
CGTAGACA | 0.192
TGCCCCAA | -0.136
GAGGTTAC | 0.104
GAAAATAC | 0.133
AACGATCT | 0.381
GCTACTCA | -0.168
ATACAGGA | 0.0794
AGCGCACT | -0.207
ACCATCGG | -0.119
ACCGCGTA | 0.244
CCAACGGA | -0.326
AGAAACTC | -0.0386
CCGGTCAC | -0.185

Sequence | PBM E-score
CTCAACTC | 0.0603
ACGTTCGG | 0.0616
GCACGAGC | -0.0167
GCATAGAC | -0.0874
AGAAACAT | 0.0695
AGGGACCA | 0.00835
GCTCCGCC | -0.128
ACTGTTAG | -0.201
AGTCTACC | 0.0177
GCGTACTA | 0.0874
ATGAGCAA | -0.105
AAGACGAT | 0.063
AGCGCGCC | -0.0978
AGGACAGC | -0.0574
GACACCCC | -0.0621
CACTAACC | -0.114
ACAAGTGA | -0.174
CGAAGTGA | 0.243
TAACCGAA | 0.286
ATCTGATC | -0.184
GGTGAATA | -0.224
AAACAGAC | -0.0937
ACGGACTA | 0.0376
CCGTCGCC | -0.044
CGCTTAAG | 0.311

Sequence | PBM E-score
AGGGCATC | -0.215
CATGCGTA | 0.275
CCAAGAAA | -0.281
TGCACGCA | -0.071
AATACTAA | 0.0618
ATCAAAAT | 0.019
GGTAGGAA | -0.196
AACGTTCA | 0.212
CCAAGGTC | -0.318
GCGGTCTA | 0.048
AGCAATTG | -0.0614
ACGCAGCT | 0.156
GGAACCAC | -0.0411
CATCCAGG | -0.381
ATATACTC | -0.0113
CACTATAA | -0.126
AAGCCGGC | -0.385
AGCGTATA | 0.444
CCTTGTAC | 0.119
